The whole screen tested about 150,000 compounds, of which about 540 (0.36%) showed an effect of 50% or more. This is one part of the list.

Results on 84 compounds are retold here after ChEMBL document CHEMBL4888484, “Replenishing the malaria drug discovery pipeline: Screening and hit evaluation of the MMV Hit Generation Library 1 (HGL1) against asexual blood stage Plasmodium falciparum ,using a nano luciferase reporter read-out” (2022).

This assay concerns Plasmodium falciparum. The assay is described as follows: Primary screen in NF54 nanoGlo assay, in single point, at 2uM, 72h; a lower Z score goes with more inhibition. Type of assay: functional, Erythrocyte. The conditions noted are these: timepoint 72 hour.
As for `COCCCN(C)C(=O)N1CCC(Nc2nc(C)cs2)CC1`, the % Inhibition (as a rule, the relative decrease from the control value, in per cent) was -15% and the Z score amounted to 2.08.
For `CCc1ccc(-c2n[nH]c(=O)c3c2CCCC3)cc1S(=O)(=O)N1CCCC[C@@H]1C` the same measures were -3% and 0.3.
`CC(C)(C)OC(=O)NC1(c2nnc(-c3ccncc3)o2)CCCC1`: the “% Inhibition” value is -5% and the Z score was 0.58.
As to `COc1ccc(OC)c(-c2nccn2Cc2sc(C)nc2C)c1`, the “% Inhibition” value was -13% and the Z score is 1.49.
Consider `CC1(CNC2CC(c3cccc(F)c3)C2)OCCCO1` (stereo not drawn), for which the “% Inhibition” value is on record as -3% and the Z score worked out at 0.36.
With `C[C@@]1(c2nc(CCc3ccc(OC(F)F)cc3)no2)CCCO1`, the “% Inhibition” value is listed as -6% and the Z score came to 0.54.
As to `Cc1cccc([C@@H](NC(=O)CCCc2cn[nH]c2)C2CC2)n1`, the “% Inhibition” value is recorded as -16% and the Z score amounted to 1.53.
Turning to `CC(C)C(NC1CCCC(C#N)C1)c1nnc2ccccn12` (stereo not drawn), the “% Inhibition” value is listed as -10% and the Z score is listed as 1.44.
For `COc1cc2c(cc1OC)[C@H](C1CC1)N(C(=O)CC(C)C)CC2`, the “% Inhibition” value is on record as -13% and the Z score is listed as 1.49.
In the case of `Cc1noc(-c2ccccc2OCC(=O)Nc2c(C)n(C)n(-c3ccccc3)c2=O)n1`, the “% Inhibition” value worked out at 13% and the Z score is on record as -1.5.
For `CN(Cc1ccsc1)c1ncccc1Cl` the same measures were -5% and 0.69.
For the compound `c1cc(-c2ccsc2)n2ncnc2n1`, the “% Inhibition” value is on record as 9% and the Z score is -1.11.
Consider `O=C1CCCN1CCN1CCCC[C@H]1c1cccc(F)c1`, for which the “% Inhibition” value was found to be 6% and the Z score was -0.89.
Turning to `CCCCc1nc(CN2CCC[C@@](CO)(CCc3ccccc3)C2)c[nH]1`, the “% Inhibition” value is listed as -2% and the Z score is 0.24.
On to `CCc1noc(NC(=O)N2Cc3ccccc3[C@@H]2C)n1`, for which the “% Inhibition” value was -9% and the Z score came out at 0.95.
As to `Cc1cc(NC(=O)NCCc2cn[nH]c2)nn1C1CCCCC1`, the “% Inhibition” value is reported as -7% and the Z score is on record as 1.35.
Regarding `Cc1cc(NC(=O)C(=O)N(C)[C@@H](C)C(C)(C)C)no1`, the “% Inhibition” value was 3% and the Z score is -0.53.
With `C=C(C)CN[C@@H](C)c1sc(CC)nc1C`, the “% Inhibition” value stood at 2% and the Z score was -0.32.
As to `NC1CCC(C(=O)N(Cc2ccccc2)Cc2ccccc2)C1` (stereo not drawn), the “% Inhibition” value amounted to 3% and the Z score is -0.55.
With `COc1cc(-n2c(=O)c3ccccc3n(CC(=O)NC[C@H]3CCCO3)c2=O)cc(OC)c1OC`, the “% Inhibition” value is listed as -2% and the Z score is listed as 0.31.
For `COc1ccc([C@@H]2c3[nH]c4ccc(Cl)cc4c3CCN2C(=O)NC2CCCC2)cc1` the same measures were 3% and -0.42.
As for `Cc1ccc(NC(=O)NCC(=O)NCC2CC2)nc1`, the “% Inhibition” value is given as -2% and the Z score worked out at 0.24.
For the compound `O=C(CN1C[C@H]2CC[C@@H](C1)N(Cc1ccccc1)C2)N1CCOCC1`, the “% Inhibition” value is on record as -18% and the Z score turned out to be 2.95.
As to `Cc1cnc2c(Cl)c(C(=O)N3CCC4(CCN(C)CC4)C3)nn2c1`, the “% Inhibition” value is -6% and the Z score worked out at 0.65.
For the compound `COCCN1CCC(CN(Cc2ccc(C)s2)C[C@H]2CCCO2)CC1`, the “% Inhibition” value is reported as -24% and the Z score is 2.15.
Consider `Cc1ccc(Nc2nc(N)c(C(=O)c3c(C)[nH]c4ccccc34)s2)c(C)c1`, for which the “% Inhibition” value is -13% and the Z score turned out to be 1.97.
Take `Cc1cc(C)cc(N2CCN(CCc3csc(C)n3)CC2=O)c1`: the “% Inhibition” value was 11% and the Z score is on record as -1.76.
For `COCCO[C@H]1[C@H](NC(=O)C(C)C)c2ccccc2C12CCN(Cc1cccc(F)c1F)CC2`, the “% Inhibition” value worked out at 24% and the Z score is -3.03.
For `CCCNC(=O)c1c(OCC2CC2)cc(=O)n2c1CCOCC2` the same measures were -13% and 2.1.
On to `O=C(Cn1c2c(sc1=O)CCCCC2)NCc1ccccc1F`, for which the “% Inhibition” value is reported as -12% and the Z score came to 1.82.
In the case of `O=C(NCc1cc(Cl)cc2c1OCC2)c1ccncc1`, the “% Inhibition” value is on record as -26% and the Z score is listed as 3.33.
Take `Cc1nc(C)n([C@@H](C)CNC(=O)c2ccc3c(c2)OCO3)n1`: the “% Inhibition” value is -42% and the Z score worked out at 4.92.
`CN(C)c1cc(NC(=O)C2COC(CCC(=O)O)C2)ccn1` (stereo not drawn): the “% Inhibition” value is -12% and the Z score is on record as 2.35.
For `CCn1cc(CNc2cc(C)nc(C)n2)cn1` the same measures were -10% and 1.14.
As for `Cc1nc(C2(C)CCN(S(=O)(=O)c3cc(C)c(C)cc3C)CC2)no1`, the “% Inhibition” value is -7% and the Z score is 1.35.
As to `CNC(=O)CC1CCN(C(=O)c2c(C)ncn2C)CC1`, the “% Inhibition” value was -10% and the Z score turned out to be 1.78.
As for `Cc1ccc(NCc2c(Cl)cnn2C)cc1N1CCCS1(=O)=O`, the “% Inhibition” value is recorded as -11% and the Z score is on record as 1.5.
`CCn1nnnc1-c1cccc(NC(=O)N2CCC3C(CCCN3C3CC3)C2)c1` (stereo not drawn): the “% Inhibition” value was -5% and the Z score was found to be 0.83.
Consider `O=C(NCCCc1ccccc1)c1cn2c(n1)C(=O)N[C@H](c1ccc(F)cc1)C2`, for which the “% Inhibition” value is listed as -11% and the Z score was found to be 1.23.
With `Cc1c(C(=O)N(C)CCc2nccs2)nnn1CC1CCCC1`, the “% Inhibition” value was -1% and the Z score worked out at 0.11.
With `CCc1ncc(C(=O)N2CCN(c3cccc(OC)c3)CC2)s1`, the “% Inhibition” value came out at 1% and the Z score is reported as -0.07.
`CC1(C)CCCN(C(=O)C2CC=CC2)CC1`: the “% Inhibition” value is on record as 28% and the Z score was -3.14.
Turning to `COc1ccc(-c2nn3c(N4CCCCCC4)cc(C)nc3c2C)cc1OC`, the “% Inhibition” value was -8% and the Z score amounted to 1.59.
`CN1C[C@@H](O)CNS(=O)(=O)c2ccc(C3CCOCC3)cc2O[C@H]2CN(C3CCCCC3)C[C@H]21`: the “% Inhibition” value is -12% and the Z score worked out at 1.79.
Consider `S=c1[nH]nc(Cn2nnc3ccccc32)o1`, for which the “% Inhibition” value is -30% and the Z score was found to be 3.47.
Take `CCn1cncc1CNC(=O)c1ccc(-c2cc(OC)nc(OC)n2)cc1`: the “% Inhibition” value turned out to be 1% and the Z score is on record as -0.17.
For the compound `Cc1c(NC(=O)c2cncc(Cl)c2)c(N2CCCC2)nn1C`, the “% Inhibition” value is -14% and the Z score was found to be 1.27.
`COc1ccc2[nH]cc(CN3CCC[C@@](F)(C(=O)N4CCCC4)C3)c2c1`: the “% Inhibition” value was -15% and the Z score stood at 1.3.
As for `N#Cc1cnccc1NC(=O)[C@@H]1C[C@]12CCOc1ccccc12`, the “% Inhibition” value is recorded as -6% and the Z score is 1.03.
Turning to `Cc1cc(CNCc2cc(Br)c3c(c2)OCO3)no1`, the “% Inhibition” value is reported as -3% and the Z score was 0.41.
Take `Cc1ccc(OC2CCN(C(=O)c3ccccc3)CC2)nn1`: the “% Inhibition” value was -17% and the Z score turned out to be 3.32.
For the compound `CCN(C1CCN(C)CC1)C1CN(C(=O)C2CCCCC2)C1`, the “% Inhibition” value was -10% and the Z score was 1.33.
`COc1ccccc1Cn1c(=O)c2sccc2n(CC(=O)Nc2ccc(C)c(Cl)c2)c1=O`: the “% Inhibition” value turned out to be 25% and the Z score is given as -3.66.
For `O=C(c1cnccn1)N1CCOc2ccc(CN3CCCCCC3)cc2C1` the same measures were -11% and 1.19.
For `CN(C)c1cccc(C(=O)N[C@H]2CCS(=O)(=O)C(C)(C)C2)c1` the same measures were -19% and 3.57.
As for `Cc1ccc2[nH]c(C3CN(S(=O)(=O)c4cccnc4)C3)nc2c1`, the “% Inhibition” value is reported as -18% and the Z score turned out to be 3.51.
Take `O=C(CN1CCOC1=O)NC1CCC2OCCOC2C1` (stereo not drawn): the “% Inhibition” value is reported as -5% and the Z score is on record as 1.02.
Regarding `COc1nccc(C(=O)N(Cc2cccs2)C(C)C)n1`, the “% Inhibition” value is listed as -9% and the Z score came to 1.2.
For `Cc1cnc([C@H]2CCN(C(=O)NCC(C)C)C2)n1C(C)C` the same measures were 2% and -0.3.
Turning to `COc1ccc([C@@]2(C)NC(=O)N(CC(=O)Nc3ccc4c(c3)CCC4)C2=O)cc1OC`, the “% Inhibition” value turned out to be 2% and the Z score is -0.25.
As for `C#CCN(Cc1ccco1)C(=O)[C@H]1CCOC1`, the “% Inhibition” value is reported as -9% and the Z score turned out to be 1.41.
Turning to `COCCc1ncc(-c2cc(C(=O)N3Cc4ccccc4C3)c3ccccc3n2)cn1`, the “% Inhibition” value was -12% and the Z score was 1.63.
As for `CC1CCN(C(=O)C2CCCN2C(=O)OCC(F)(F)F)CC1C` (stereo not drawn), the “% Inhibition” value is on record as -13% and the Z score is on record as 2.39.
Turning to `CCNC(=O)N1CCC(Cc2ccc(C(=O)N(C)Cc3cn(CC)nc3C)cc2)CC1`, the “% Inhibition” value was -4% and the Z score turned out to be 0.54.
Take `C#CCNC(=O)C1C(=O)C(C)N(Cc2ccccc2)C1=O` (stereo not drawn): the “% Inhibition” value is on record as -12% and the Z score is recorded as 1.51.
With `Cc1cn(C)c(CC(=O)NCc2ccc(CN3CCCCCC3)o2)c1C(=O)O`, the “% Inhibition” value is -14% and the Z score stood at 1.81.
For the compound `CC(C)c1ccc(NC(=O)C2CCN(S(=O)(=O)c3ccc4c(c3)CCCN4C(=O)C3CCC3)CC2)cc1`, the “% Inhibition” value is reported as -13% and the Z score is recorded as 2.33.
As to `CNS(=O)(=O)c1ccc(NC(=O)NCC2(c3ccc(F)cc3F)CC2)nc1`, the “% Inhibition” value is recorded as -4% and the Z score is 0.56.
Consider `CC(C)(C)CC(NC(=O)N1CCCC(CO)C1)C(F)(F)F` (stereo not drawn), for which the “% Inhibition” value was 0% and the Z score is reported as -0.07.
Turning to `Cc1ccc(-n2cc(-c3ccccc3)nc2NC(=O)CN(CCN2CCOCC2)C(=O)c2ccco2)cc1F`, the “% Inhibition” value was determined as 0% and the Z score is on record as -0.03.
Consider `Cc1ccccc1Oc1cc(NC(=O)c2ccc(F)cc2)cc(NC(=O)c2ccc(F)cc2)c1`, for which the “% Inhibition” value was -5% and the Z score was 0.73.
For `NC(=O)C1=C(NCCc2ccccc2)c2ccccc2S1(=O)=O` the same measures were -9% and 0.9.
With `Cc1cnc(-c2cccc(C(=O)NCCN3CCNC3=O)c2)nc1N(C)C`, the “% Inhibition” value is recorded as -18% and the Z score was found to be 2.72.
For `COc1ccccc1Oc1nc(N2CCC(C)CC2)nc2c1CN(C(=O)Nc1ccccc1)CC2` the same measures were -17% and 2.35.
For `CC1(C)C[C@H](NCc2cc(C(N)=O)c3n2CCCC3)c2ccccc21` the same measures were 5% and -0.67.
Take `COCCCN(CC(=O)N(CCc1c[nH]c2ccccc12)Cc1ccc(Cl)cc1)C(=O)c1cccc(Br)c1`: the “% Inhibition” value is recorded as -11% and the Z score stood at 1.98.
With `CCOC(=O)CNC(=O)N1CCCn2nc(-c3ccc(C)c(C)c3)cc2C1`, the “% Inhibition” value is -12% and the Z score was found to be 1.3.
On to `CCCN1C[C@@H](C(=O)N2CCn3cncc3C2)CCC1=O`, for which the “% Inhibition” value amounted to 0% and the Z score was -0.01.
For `Cc1nc(CNC(=O)N(C)C[C@H](C)c2nccs2)c(C)s1`, the “% Inhibition” value is listed as -2% and the Z score came out at 0.32.
Take `C[C@H](CO)N(C)S(=O)(=O)c1c(O)cccc1OC(F)(F)F`: the “% Inhibition” value is recorded as -6% and the Z score came out at 0.63.
For `O=C(Nc1ccc(F)c(Cl)c1)[C@H]1Nc2cc(C(F)(F)F)ccc2S(=O)(=O)N1` the same measures were -9% and 1.65.
On to `CCCCc1nc(CN2CCC[C@H](C(=O)c3cccc(OC(C)C)c3)C2)c[nH]1`, for which the “% Inhibition” value is recorded as -3% and the Z score is given as 0.36.
For `CC(C)N1CCC(N2CCN(Cc3nc4c(s3)CCCC4)C[C@@H]2CCO)CC1` the same measures were -5% and 0.55.
For `CC(C)(C)n1nccc1NC(=O)Nc1ccn(Cc2ccncc2)n1` the same measures were -6% and 1.19.
